# According to PubChem BioAssay AID1347073 (National Center for Advancing Translational Sciences (NCATS), 2019):
# In all, about 45,000 compounds went through this assay and about 200 (0.44%) were called active. Roughly 7% stayed inconclusive and do not appear here. Calls follow the shape of the dose curve; as a rule, active = well fitted activation curve with a large enough effect; inconclusive = small, poorly fitted or top-dose-only effect; inactive = no such curve, though single readings can be large or run the other way. The list shows a part of the results.
# Assay: qHTS of TDP-43 Inhibitors: NCGC Sytravon Library Screen; also: 0% is about no effect; nearly all actives have a fitted effect of over 55% in size
# Conditions: yeast TDP-43 toxicity rescue, BacTiter-Glo growth, 24 h; series mostly up to 46.1 µM; growth rescue (activation): at the top concentration
# In short: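 TDP-43-expressing yeast, pregrown in raffinose, seeded at OD600 0.02 in galactose medium with compound for 24 hr at 30 deg C. Growth read by BacTiter-Glo luminescence, so rescue of toxicity appears as activation.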
row,SMILES,growth rescue (activation)
1,Cc1ccc(S(=O)(=O)N2CCOCC2)cc1NC(=O)COC(=O)C1COc2ccccc2O1 (centres undefined),inactive: 11.6%
2,Cc1ccccc1Cn1c(O)c(N=NC(=S)Nc2ccccc2F)c2ccccc21,inactive: 13.8%
3,COc1ccccc1-n1c(=O)c(C#N)c(-c2ccc([N+](=O)[O-])cc2)c2cc(C(=O)c3cc(F)ccc3O)cnc21,inactive: -9.36%
4,COc1ccc(S(=O)(=O)N2CCCCC2)cc1NS(=O)(=O)c1ccccc1,inactive: 5.72%
5,COc1ccc(N(Cc2cc(=O)[nH]c3ccccc23)C(C)=O)cc1,inactive: 9.34%
6,O=S(=O)(NC1=NCCCCC1)c1ccc(F)cc1,inactive: 17.6%
7,CCOC(=O)C1CCCN(S(=O)(=O)c2ccc(S(N)(=O)=O)cc2)C1 (centres undefined),inactive: 12.5%
8,CSc1ncccc1C(=O)OCC(=O)N1CC2(C)CC1CC(C)(C)C2 (centres undefined),inactive: -8%
9,CC1CCN(c2c(NCC3CCC(C(=O)NCCc4ccc(Cl)cc4)CC3)c(=O)c2=O)CC1 (centres undefined),inactive: -13.9%
10,CCCc1nnc(SCC(=O)Nc2nc(C)cs2)n1CCOC,inactive: -9.31%
11,CCc1nc2c(OCC(=O)c3ccc(F)cc3)cccn2c1N(C)C(=O)C(C)C,inactive: 6.13%
12,CCCN(CCC)S(=O)(=O)c1cc2c(cc1Br)CCN2C(=O)CC,inactive: -16%
13,CCc1nc2ccc(C(=O)NCCCn3ccnc3)cn2c1N(C)Cc1ccc(OC)cc1,inactive: -0.258%
14,CCC(CC)C(=O)OCC(=O)Nc1cccc(S(=O)(=O)N(C)c2ccccc2)c1,inactive: 1.39%
15,CN(NS(C)(=O)=O)c1c(C#N)c(C(F)(F)F)nn1C,inactive: -6.9%
16,O=C(COC(=O)COc1ccccc1[N+](=O)[O-])Nc1ccc2c(c1)OCO2,inactive: 11.8%
17,Cc1ccccc1CNC(=O)C(C)n1nc(C)n2c(cc3occc32)c1=O (centres undefined),inactive: 7.15%
18,Nc1nnc(SCc2ccc([N+](=O)[O-])cc2)s1,inactive: 4.88%
19,COc1ccc(CC(=O)OCC(=O)NCc2ccc3c(c2)OCO3)cc1OC,inactive: 12.5%
20,O=C(NC1CCN(C(=O)NCc2ccccc2)CC1)c1ccc(F)cc1,inactive: -0.833%
21,CC(C)c1nnc(NC(=O)COc2ccc3c(c2)OCO3)s1,inactive: 10.5%
22,Cc1ccc(C)c(NC(=O)CCN2CCc3ccccc3C2)c1,inactive: 12.2%
23,Cc1ccc(C)c(C(=O)CN2C(=O)c3ccccc3C2=O)c1,inactive: 10.9%
24,CCCNC(=O)C1(C)CCN(C(=O)c2ccccc2OC(F)(F)F)C1 (centres undefined),inactive: -5.6%
25,CCCCn1c(=O)[nH]c(=O)c2c1nc(-c1ccccn1)n2CC,inactive: 7.45%
26,O=C(N/N=C/c1cccc([N+](=O)[O-])c1)c1c[nH]c2ccccc12,inactive: 3.31%
27,CC(=O)c1ccc(NC(=O)CSc2nc(=O)cc(N)n2-c2ccccc2)cc1,inactive: -4.33%

row,SMILES,growth rescue (activation)
1,CC(C)(C)N(Cc1ccccc1)C(=O)COC(=O)c1ccc2ccccc2n1,inactive: -1.08%
2,COc1ccc(Cl)cc1NC(=O)[C@@H]1CCCN1C(=O)c1cccs1,inactive: 10.8%
3,CCOC(=O)c1sc(NCCNc2nc(C)c(C(=O)OCC)s2)nc1C,inactive: 20.8%
4,COc1ccc(NC(=O)CSc2nc3nc(C)cc(C)n3n2)cc1,inactive: 6.88%
5,COc1cccc(CNC(=O)CCc2nnc3n(C)c(=O)c4sccc4n23)c1,inactive: 13.5%
6,O=C(Nc1cccc(NC(=O)N2CCN(c3ccccc3)CC2)c1)N1CCN(c2ccccc2)CC1,inactive: -11.3%
7,CCOc1ccc(CN(C)Cc2cc(=O)oc3cc(C)c(Cl)cc23)cc1,inactive: 7.7%
8,CC(NC(=O)c1cc(Br)ccc1Cl)c1ccccc1 (centres undefined),inactive: 17.9%
9,CCOc1cc2c(cc1OCC)C(c1ccccc1)N(c1ccc(C(=O)O)cc1)C(=O)C2 (centres undefined),inactive: -12.4%
10,CCCCNC(=O)/C=C/c1cccs1,inactive: 8.71%
11,O=C(O)C(c1ccccc1)N1C(=O)/C(=C/c2cccs2)SC1=S (centres undefined),inactive: 29.8%
12,COCc1c(Br)c(C)nc2sc3c(=O)[nH]nnc3c12,inactive: -12.6%
13,CN1CCN(S(=O)(=O)c2ccc(NC(=O)COc3ccccc3Cl)cc2)CC1,inactive: 7.37%
14,O=C(CSc1nc(-c2cccs2)cc(C(F)(F)F)n1)Nc1cc(OCC(F)(F)F)cc([N+](=O)[O-])c1,inactive: 16%
15,CCc1cc(=O)n2[nH]c(-c3ccccc3)c(-c3ccccc3)c2n1,inactive: -3.6%
16,COc1ccc(C2(C)NC(=O)N(CC(=O)NCC(=O)Nc3ccc(F)c(F)c3F)C2=O)cc1OC (centres undefined),inactive: 2.67%
17,O=C(Nc1ccc2c(c1)OCCO2)C1CC(O)CN1C(=O)Nc1ccccc1 (centres undefined),inactive: -15.5%
18,CCn1c(CN2CCC(C)CC2)nc2cc(NC(=O)c3ccccc3[N+](=O)[O-])ccc21,inactive: 14.7%
19,CCOc1ccc(-n2c(-c3ccc(Cl)cc3)c[n+]3c2SCC3)cc1,inactive: 4.41%
20,Cc1ccc(CNC(=O)CCCc2c[nH]c3ccccc23)cc1,inactive: 33.8%
21,O=C(CSc1nnc(-c2ccccc2Br)o1)N1CCOCC1,inactive: -2.93%
22,CC1=NN(C(=O)COc2ccc(C)c(C)c2)C(O)(c2ccccc2)C1 (centres undefined),inactive: 7.92%
23,O=C(Nc1cc(Sc2nc3ccccc3s2)cc([N+](=O)[O-])c1)c1cccc(F)c1F,inactive: -13.4%
24,OC(c1ccc(F)c(F)c1)c1nc(-c2cc(F)cc(F)c2)cs1 (centres undefined),inactive: -39.7%
25,CC(=O)c1c(C)[nH]c(C(=O)Nc2cccc(C)c2C)c1C,inactive: 19.4%
26,O=C(O)CCC(=O)NNc1ncnc2ccccc12,inactive: -0.0203%
27,CCN(C(=O)COC(=O)C12CC3CC(CC(NC(C)=O)(C3)C1)C2)C1CCCCC1,inactive: 28.8%
